Test results reported in PMC10561363.
These are yes or no findings as the source states them, for the method shown. Binding seen in cells or lysates may run through a third protein. Some results given as binding are weak or reduced against the parent protein; the word gives no strength.

Legend:
Assay in all cases: co-IP; GFP-Trap agarose on lysates of HEK-293 cells stably expressing YFP-tagged transporters, 90 min at 4°C, co-IP lysis buffer; immunoblot; for YFP-hSERT also after control or MAD2 siRNA (BubR1 substantially reduced, β2-adaptin down by about 50%, p31^comet not significantly changed, HSP70 unaffected)
[1] = target: N-terminally YFP-tagged human dopamine transporter (human) (UniProt Q01959)
[2] = target: YFP-tagged human GABA transporter 1 (human) (UniProt P30531)
[3] = target: N-terminally YFP-tagged human norepinephrine transporter (human) (UniProt P23975)

binding [1]: binds
binding [2]: binds
binding [3]: binds
B1: p31^comet, endogenous (protein, UniProt Q15013 1-274)
chain: MAAPEAEVLSSAAVPDLEWYEKSEETHASQIELLETSSTQEPLNASEAFCPRDCMVPVVFPGPVSQEGCCQFTCELLKHIMYQRQQLPLPYEQLKHFYRKPSPQAEEMLKKKPRATTEVSSRKCQQALAELESVLSHLEDFFARTLVPRVLILLGGNALSPKEFYELDLSLLAPYSVDQSLSTAACLRRLFRAIFMADAFSELQAPPLMGTVVMAQGHRNCGEDWFRPKLNYRVPSRGHKLTVTLSCGRPSIRTTAWEDYIWFQAPVTFKGFRE
